The name of at least one read-out is uncertain.
Test system: mice
Test: 4 plates test (suppressive conditioning), 25 mg/kg orally, increase in punished passages with respect to control
Format: in vivo, Swiss male mice
Details: male mice, 25 mg/kg single oral dose, 60 minutes before the test
Description: The method is based on the attenuation or suppression of the anxiety state induced by electric shocks on movement of the animals (mice) into a special enclosure.
The anxiolytic effect is manifested by an increase in movements at doses not affecting motility.
For each dose, the groups are of 15 animals which have not undergone the test.
The apparatus was of the Apelex type.
It is composed of a parallelepipedic box of white plastic material, provided with a lid of transparent plexiglas, mobile by means of two hinges. The floor, which is rectangular, is constituted by four plates of conductive metal of which the distance between one another and the walls of the box is of 0.5 cm.
These plates are connected to an Apelex impulse generator. The potential difference when there is no impulse is, nil between two plates on a diagonal and is of 180 Volts between two adjacent plates. A trigger enables that a constant electrical current pulse be sent (of 0 to 2 milliamperes) for a selected time (from 0.1 to 5 seconds).
The operation is carried out in a silent area at constant temperature, the experimenter overlooking the box so that he can follow all the movements of the mice placed on one of the plates.
For each animal, the experiment is carried out according to the following modalities:
preliminary exploration of 15 seconds, without electric shock;
punished exploration (electric shock for each movement between two ajdacent plates) for 60 seconds.
The electric shocks have a duration of 0.5 seconds and an intensity of 0.6 milliampere.
The controls receive only carboxymethylcellulose.
The results are expressed as percentage of increase in the number of punished passages with respect to the control batch (increase percentage).

O=S(=O)(c1cccc(C(F)(F)F)c1)N1CCN(CCO)CC1 [Compound 1505]
% increase in the number of punished passages with respect to the control batch: higher than 20%

— patent US4760062A, “Pharmaceutical compositions of N-heterocyclic benzenesulfonamides and their use” (DROPIC, Societe Civile de gestion de droits de Propriete …, priority 1983, dated 1988)
